In PMC9911399, “Two distinct binding modes provide the RNA-binding protein RbFox with extraordinary sequence specificity”:
Residue numbers refer to the chain shown, from its start. Some of the results follow.

T1: RBFOX1 RRM (Homo sapiens, UniProt Q9NWB1 109-208)
T1 sequence: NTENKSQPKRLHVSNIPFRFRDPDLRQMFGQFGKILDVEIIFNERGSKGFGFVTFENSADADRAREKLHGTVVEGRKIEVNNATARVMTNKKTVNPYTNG

B1: CCAUCAA (DNA:RNA)
RNA: GGGAGACCGGAAUUCAGAUUGUCCCCAUCAAUUAAAUCCCGUCGUAGCCACCA
DNA 1: CAATCTGAATTCCGGTCTCCC
DNA 2: TGGTGGCTACGACGGGATT
B2: UCAGGUU (DNA:RNA)
RNA: B1 RNA with C25U, U28G, C29G, A30U, A31U
DNA 1: CAATCTGAATTCCGGTCTCCC
DNA 2: TGGTGGCTACGACGGGATT
B3: AUGACGU (DNA:RNA)
RNA: B1 RNA with C25A, C26U, A27G, U28A, A30G, A31U
DNA 1: CAATCTGAATTCCGGTCTCCC
DNA 2: TGGTGGCTACGACGGGATT
B4: AAUUUAU (DNA:RNA)
RNA: B1 RNA with C25A, C26A, A27U, C29U, A31U
DNA 1: CAATCTGAATTCCGGTCTCCC
DNA 2: TGGTGGCTACGACGGGATT
B5: GCUGACU (DNA:RNA)
RNA: B1 RNA with C25G, A27U, U28G, C29A, A30C, A31U
DNA 1: CAATCTGAATTCCGGTCTCCC
DNA 2: TGGTGGCTACGACGGGATT
B6: UUAGUAU (DNA:RNA)
RNA: B1 RNA with C25U, C26U, U28G, C29U, A31U
DNA 1: CAATCTGAATTCCGGTCTCCC
DNA 2: TGGTGGCTACGACGGGATT
B7: UCCCGGG (DNA:RNA)
RNA: B1 RNA with C25U, A27C, U28C, C29G, A30G, A31G
DNA 1: CAATCTGAATTCCGGTCTCCC
DNA 2: TGGTGGCTACGACGGGATT
B8: UUUUCUU (DNA:RNA)
RNA: B1 RNA with C25U, C26U, A27U, A30U, A31U
DNA 1: CAATCTGAATTCCGGTCTCCC
DNA 2: TGGTGGCTACGACGGGATT
B9: GCUGUUC (DNA:RNA)
RNA: B1 RNA with C25G, A27U, U28G, C29U, A30U, A31C
DNA 1: CAATCTGAATTCCGGTCTCCC
DNA 2: TGGTGGCTACGACGGGATT
B10: UCUGCGA (DNA:RNA)
RNA: B1 RNA with C25U, A27U, U28G, A30G
DNA 1: CAATCTGAATTCCGGTCTCCC
DNA 2: TGGTGGCTACGACGGGATT
B11: GAAAGUU (DNA:RNA)
RNA: B1 RNA with C25G, C26A, U28A, C29G, A30U, A31U
DNA 1: CAATCTGAATTCCGGTCTCCC
DNA 2: TGGTGGCTACGACGGGATT
B12: CUACUUA (DNA:RNA)
RNA: B1 RNA with C26U, U28C, C29U, A30U
DNA 1: CAATCTGAATTCCGGTCTCCC
DNA 2: TGGTGGCTACGACGGGATT
B13: AGACAUA (DNA:RNA)
RNA: B1 RNA with C25A, C26G, U28C, C29A, A30U
DNA 1: CAATCTGAATTCCGGTCTCCC
DNA 2: TGGTGGCTACGACGGGATT
B14: CGACGCC (DNA:RNA)
RNA: B1 RNA with C26G, U28C, C29G, A30C, A31C
DNA 1: CAATCTGAATTCCGGTCTCCC
DNA 2: TGGTGGCTACGACGGGATT
B15: GGAGGGC (DNA:RNA)
RNA: B1 RNA with C25G, C26G, U28G, C29G, A30G, A31C
DNA 1: CAATCTGAATTCCGGTCTCCC
DNA 2: TGGTGGCTACGACGGGATT
B16: CGUUGAU (DNA:RNA)
RNA: B1 RNA with C26G, A27U, C29G, A31U
DNA 1: CAATCTGAATTCCGGTCTCCC
DNA 2: TGGTGGCTACGACGGGATT
B17: GAGAGCA (DNA:RNA)
RNA: B1 RNA with C25G, C26A, A27G, U28A, C29G, A30C
DNA 1: CAATCTGAATTCCGGTCTCCC
DNA 2: TGGTGGCTACGACGGGATT
B18: ACAUGUG (DNA:RNA)
RNA: B1 RNA with C25A, C29G, A30U, A31G
DNA 1: CAATCTGAATTCCGGTCTCCC
DNA 2: TGGTGGCTACGACGGGATT
B19: CGUCUUG (DNA:RNA)
RNA: B1 RNA with C26G, A27U, U28C, C29U, A30U, A31G
DNA 1: CAATCTGAATTCCGGTCTCCC
DNA 2: TGGTGGCTACGACGGGATT
B20: UAGGUAC (DNA:RNA)
RNA: B1 RNA with C25U, C26A, A27G, U28G, C29U, A31C
DNA 1: CAATCTGAATTCCGGTCTCCC
DNA 2: TGGTGGCTACGACGGGATT
B21: GACAGAG (DNA:RNA)
RNA: B1 RNA with C25G, C26A, A27C, U28A, C29G, A31G
DNA 1: CAATCTGAATTCCGGTCTCCC
DNA 2: TGGTGGCTACGACGGGATT
B22: GAGAUUC (DNA:RNA)
RNA: GGGAGACCGGAAUUCAGAUUGUCCGAGAUUCUUAAAUCCCGUCGUAGCCACCA
DNA 1: CAATCTGAATTCCGGTCTCCC
DNA 2: TGGTGGCTACGACGGGATT
B23: ACGUCCA (DNA:RNA)
RNA: B1 RNA with C25A, A27G, A30C
DNA 1: CAATCTGAATTCCGGTCTCCC
DNA 2: TGGTGGCTACGACGGGATT
B24: AAGCAUG (DNA:RNA)
RNA: B22 RNA with G25A, A28C, U29A, C31G
DNA 1: CAATCTGAATTCCGGTCTCCC
DNA 2: TGGTGGCTACGACGGGATT
B25: GAGGUUC (DNA:RNA)
RNA: B22 RNA with A28G
DNA 1: CAATCTGAATTCCGGTCTCCC
DNA 2: TGGTGGCTACGACGGGATT
B26: UUUGGAC (DNA:RNA)
RNA: B1 RNA with C25U, C26U, A27U, U28G, C29G, A31C
DNA 1: CAATCTGAATTCCGGTCTCCC
DNA 2: TGGTGGCTACGACGGGATT
B27: UACGAAG (DNA:RNA)
RNA: B1 RNA with C25U, C26A, A27C, U28G, C29A, A31G
DNA 1: CAATCTGAATTCCGGTCTCCC
DNA 2: TGGTGGCTACGACGGGATT
B28: CCACAUU (DNA:RNA)
RNA: B1 RNA with U28C, C29A, A30U, A31U
DNA 1: CAATCTGAATTCCGGTCTCCC
DNA 2: TGGTGGCTACGACGGGATT
B29: CUAAACA (DNA:RNA)
RNA: B1 RNA with C26U, U28A, C29A, A30C
DNA 1: CAATCTGAATTCCGGTCTCCC
DNA 2: TGGTGGCTACGACGGGATT
B30: ACCUCCA (DNA:RNA)
RNA: B1 RNA with C25A, A27C, A30C
DNA 1: CAATCTGAATTCCGGTCTCCC
DNA 2: TGGTGGCTACGACGGGATT
B31: CAAUCAA (DNA:RNA)
RNA: B1 RNA with C26A
DNA 1: CAATCTGAATTCCGGTCTCCC
DNA 2: TGGTGGCTACGACGGGATT

Target: T1, RBFOX1 RRM
Assay: EMSA; HiTS-Eq, 1 nM pool, 10 min; buffer printed only for the single-RNA assays: 10 mM Tris pH 7.5, 150 mM NaCl, 3.4 mM EDTA, 0.001% NP-40, 30 C
Conditions: tags: His6 N-terminal (pET28a); label: 5' 32P
Summary of the method: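 Purified RbFox RRM, wild type or mutant, was incubated for 10 min in 50 µL with 1 nM of a 5′-radiolabelled RNA pool carrying 7 randomized nucleotides, whose flanks were annealed to DNA oligonucleotides, over a series of increasing protein concentrations. Unbound RNA was resolved on 8% native PAGE, cut out, reverse-transcribed, barcoded by PCR and sequenced on an Illumina HiSeq 2500. Relative association constants were derived from changes in read counts for each RNA species versus the control reaction and normalised to the cognate motif.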

| Binder | binding signal |
| --- | --- |
| B1 | 0.00282 KA relative to UGCAUGU |
| B2 | 0.0129 KA relative to UGCAUGU |
| B3 | 0.0112 KA relative to UGCAUGU |
| B4 | 0.00172 KA relative to UGCAUGU |
| B5 | 0.016 KA relative to UGCAUGU |
| B6 | 0.00555 KA relative to UGCAUGU |
| B7 | 0.00832 KA relative to UGCAUGU |
| B8 | 0.0124 KA relative to UGCAUGU |
| B9 | 0.0202 KA relative to UGCAUGU |
| B10 | 0.0192 KA relative to UGCAUGU |
| B11 | 0.0131 KA relative to UGCAUGU |
| B12 | 0.00117 KA relative to UGCAUGU |
| B13 | 0.00122 KA relative to UGCAUGU |
| B14 | 0.00862 KA relative to UGCAUGU |
| B15 | 0.0119 KA relative to UGCAUGU |
| B16 | 0.014 KA relative to UGCAUGU |

| Binder | binding signal |
| --- | --- |
| B17 | 0.0187 KA relative to UGCAUGU |
| B18 | 0.0117 KA relative to UGCAUGU |
| B19 | 0.0157 KA relative to UGCAUGU |
| B20 | 0.0182 KA relative to UGCAUGU |
| B21 | 0.0125 KA relative to UGCAUGU |
| B22 | 0.0158 KA relative to UGCAUGU |
| B23 | 0.0022 KA relative to UGCAUGU |
| B24 | 0.674 KA relative to UGCAUGU |
| B25 | 0.0204 KA relative to UGCAUGU |
| B26 | 0.00452 KA relative to UGCAUGU |
| B27 | 0.00764 KA relative to UGCAUGU |
| B28 | 0.000968 KA relative to UGCAUGU |
| B29 | 0.00246 KA relative to UGCAUGU |
| B30 | 0.00269 KA relative to UGCAUGU |
| B31 | 0.00098 KA relative to UGCAUGU |
